# In PubChem BioAssay AID757 (NMMLSC, 2007):
# Among all 190,000 compounds or so, about 520 (0.27%) were called active. Inconclusive means that the source gave no clear call. Such entries were picked first, then a sample of the others.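 Rule for the calls: active = GTP binding activity at least 20 points away from the 100% control level, either lower or higher; inconclusive = compound flagged as likely green fluorescent, judged across all proteins; inactive = the rest.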
# Target: Ras-related C3 botulinum toxin substrate 1 (Homo sapiens) (UniProt P63000)
# Test: wildtype Rac1 GTP binding modulators, primary screen, biochemical, GST-Rac1 beads, flow cytometry, multiplex (AID 757)
# Conditions: fluorescent GTP binding, at 10 µM, actives lie on both sides, 0 = cold GTP competed, 100 = untreated
row,Structure (SMILES),GTP binding activity (% of control)
1,CCOc1ccc(NC(=O)c2cc3c(C)nc4ccccc4c3o2)cc1,inconclusive: 97%
2,C[C@H](NC(=O)Nc1ccc2c(c1)OCCO2)C(=O)O,inconclusive: 107%
3,CC1C(=O)CCN(C(C)C)C1C (stereo unspecified),inconclusive: 104%
4,COC(=O)c1cc(Cl)c(NC(=O)c2cc3ccccc3o2)cc1OC,inactive: 100%
5,COc1cccc(C2CC(c3ccccc3)=NN2S(=O)(=O)c2ccc(C)cc2)c1OC (stereo unspecified),inconclusive: 132%
6,COC(=O)c1cc2nc(-c3ccccc3)cc(C(F)(F)F)n2n1,inactive: 99%
7,Cc1ccc(N(C(=O)Cc2cccs2)C(C(=O)NCC2CCCO2)c2ccncc2)cc1 (stereo unspecified),inactive: 108%
8,Cc1cc(C(=O)CSc2nn3c(=O)c(C(C)(C)C)nnc3s2)c(C)n1C1CC1,inconclusive: 89%
9,CNC(=S)N=Nc1c(O)[nH]c2ccccc12,active: 69%
10,Cc1ccc(-c2ccc(/C=C3\SC(N4CCOCC4)=NC3=O)o2)cc1,active: 76%
11,O=S1(=O)CCN(Cc2cccc(Cl)c2)CC1,inconclusive: 107%
12,COC(=O)c1c(NC(=O)COC(=O)Cn2cnc3ccccc32)sc2c1CCCC2,inconclusive: 95%
13,Cc1nn(CC(=O)NCc2cccnc2)c(=O)c2ccccc12,inconclusive: 86%
14,CCOc1c(O)ccc(/C=C2\SC(=S)NC2=O)c1[N+](=O)[O-],inconclusive: 83%
15,O=C1NC(=Nc2ccc(O)cc2)S/C1=C/c1ccco1,inactive: 95%
16,Cc1ccc(C2C(C=Nc3c(C)n(C)n(-c4ccccc4)c3=O)=C(c3ccccc3)Oc3ccccc32)cc1 (stereo unspecified),inactive: 102%
17,Cc1ccc(NC(=O)c2ccc3c(c2)C(=O)N(CC2CCCO2)C3=O)cc1C (stereo unspecified),inconclusive: 100%
18,CC(=O)Nc1nonc1-c1nc2ccccc2n1Cc1nnc(C)o1,inconclusive: 106%
19,O=C(Nc1cccc(Cl)c1)N1CCN(c2ncccn2)CC1,active: 125% [activator]
20,CC(=O)c1sc(NC(=O)C(C)C)nc1C,inconclusive: 104%
21,O=C1Nc2ccc(Br)cc2C12NNc1ccccc1O2 (stereo unspecified),inactive: 84%
22,c1cc2c(c(NCc3ccncc3)c1)CCCC2,inactive: 103%
23,COC(=O)[C@@H](NC(=O)O[C@@H]1C(=O)c2ccc(OC)cc2O[C@H]1c1cccc(C(F)(F)F)c1)C(C)C,inactive: 101%

row,Structure (SMILES),GTP binding activity (% of control)
1,CCS(=O)(=O)N1CCN(c2ccc([N+](=O)[O-])c(NCC3CCCO3)c2)CC1 (stereo unspecified),inconclusive: 92%
2,Cc1c(Br)c(C(F)(F)F)nn1CC(=O)N1CCCC1,inconclusive: 88%
3,CN(CCN1CCOCC1)Cc1nc(-c2ccc3c(c2)OCO3)no1,inactive: 98%
4,CCOc1ccc(Cn2c3ccc(OC)cc3c3nc4ccccc4nc32)cc1,active: 124% [activator]
5,CCOC(=O)CN(Cc1sccc1C)C(=O)Nc1ccc(OC)cc1OC,inactive: 105%
6,Cc1ccc(S(=O)(=O)n2nc(OC(=O)C3CCCCC3)cc2N)cc1,inconclusive: 105%
7,O=C(CSc1ncn[nH]1)Nc1ccc(OCc2ccccc2)cc1,inactive: 95%
8,Cc1cc(C(F)(F)F)c(C#N)c(SCC(=O)Nc2nc3ccccc3s2)n1,inconclusive: 129%
9,CCc1nnc(NC(=O)/C=C/c2cccs2)s1,inactive: 99%
10,COc1cc(/C=C2/C(=O)NN(c3cccc(F)c3)C2=O)ccc1OC(=O)c1ccco1,inconclusive: 94%
11,CCCCn1c(=O)c(CCC(=O)OCC(=O)NCc2ccc(OC)c(OC)c2)nc2ccccc21,inconclusive: 93%
12,Cn1c(=O)cc(SCC(=O)NCCCN2CCOCC2)c2ccc(Cl)cc21,inconclusive: 106%
13,Brc1ccc(Cn2c(-c3cncs3)nc3ccccc32)cc1,inconclusive: 105%
14,COCc1cc(=O)n2[nH]c(SCc3ccccc3)nc2n1,inconclusive: 105%
15,CCCN1C(=O)/C(=C\C=C2\N(CC)c3ccccc3C2(C)C)SC1=S,inconclusive: 117%
16,O=C(O)CC(NC(=O)c1sc2ccccc2c1Cl)c1ccc(OC2CCCC2)cc1 (stereo unspecified),inconclusive: 82%
17,CCSc1nc2ccccc2n1C(=O)/C=C\c1ccc(OC)c(OC)c1,inactive: 103%
18,O=C(N/N=C/c1ccc[nH]1)c1ccc(O)cc1,inconclusive: 98%
19,Cc1ccc(-n2c(SCC(=O)Nc3ccc4c5c(cccc35)CC4)nc(O)c(C)c2=O)cc1,inconclusive: 95%
20,S=C(Nc1ccc(Cl)c(Cl)c1)NC1CCCCC1,inconclusive: 104%
21,O=C(C1CCCN(Cc2cccc(F)c2)C1)N1CCCCC1 (stereo unspecified),inactive: 106%
22,COC(=O)c1sccc1NC(=S)N1CCN(c2ccccc2)CC1,inconclusive: 94%
23,Cc1[nH]nc2c1C(c1ccc(Cl)cc1)C(C#N)=C(N)O2 (stereo unspecified),inconclusive: 95%

row,Structure (SMILES),GTP binding activity (% of control)
1,C=CCn1c(CNc2ccccc2)nnc1SCC(=O)N/N=C/c1ccc(O)cc1O,inconclusive: 90%
2,Cc1ccc(/C(N)=N/OC(=O)CCC2CCCCC2)cc1,active: 133% [activator]
3,Cc1ccc(NC(=S)NNC(=O)c2cn(C)nc2C)cc1,active: 134% [activator]
4,COc1ccc(CC(=O)NNC(=O)c2ccncc2)cc1,inactive: 102%
5,Cc1sc(NC(=O)/C=C/c2ccc(C(C)C)cc2)c(C#N)c1C,inconclusive: 98%
6,CC(=O)C(Sc1ncnc2sc3c(c12)CCCC3)C(C)=O,inconclusive: 104%
7,COc1ccc(C(=O)Nc2cc(Cl)ccc2OC(=O)c2ccc(OC)cc2)cc1,inactive: 96%
8,O=[N+]([O-])c1cc(Cc2ccccc2)cc(C=Nc2ccc(N3CCOCC3)cc2)c1O,active: 75%
9,O=C1N(Cc2cccnc2)C[C@@H]2C[C@@H](c3ccc4nsnc4c3)N3CCC[C@@]123,inactive: 95%
10,COc1ccc(OC)c(NC(=O)c2ccno2)c1,inactive: 101%
11,CSc1nc2ccccc2cc1/C=C(\C#N)c1ccc(Cl)c(Cl)c1,inconclusive: 94%
12,CC(C)Cc1csc(NC(=O)c2ccc(Cl)cc2)c1C(=O)O,inactive: 92%
13,CCNC(=O)COC(=O)c1ccc(S(=O)(=O)N2CCCCCC2)cc1,inconclusive: 106%
14,COc1ccccc1-n1cc([C@@H]2C[C@H]3CN(c4ccccc4)C(=O)[C@]34CCCN24)cn1,inconclusive: 126%
15,O=C(Cn1cnc2ccccc2c1=O)NCCC(=O)Nc1ccc2c(c1)OCCO2,inconclusive: 104%
16,COc1cccc(CNC(=O)C2CCN(S(=O)(=O)c3ccc4c(c3)CCC(=O)N4)CC2)c1,inconclusive: 89%
17,Cc1nn(C)cc1/C=N/NC(=O)c1ccc2c(c1)OCO2,inconclusive: 108%
18,CCOc1cc(/C=C2\C(=O)N(Cc3ccc(C)cc3)C(C)=C2C(=O)OC)ccc1O,inconclusive: 104%
19,Cc1nn(Cc2ccccc2)c(Cl)c1C(=O)OC(C)C#N (stereo unspecified),inactive: 97%
20,COc1ccccc1-c1ccc(SCC(=O)NCCc2ccccc2)nn1,inconclusive: 89%
21,Cc1ncc(CO)c(/C=N/NC(=O)c2cc3c(s2)CCCC3)c1O,inactive: 96%
22,CCOc1ccc(NC(=O)NC(C)CC)cc1 (stereo unspecified),inconclusive: 100%
23,O=C(NNC1OC(CO)C(O)C(O)C1O)c1cccnc1 (stereo unspecified),inactive: 98%

row,Structure (SMILES),GTP binding activity (% of control)
1,Cc1ccc(-c2nn(-c3ccccc3)cc2NC(=O)CCl)cc1,inactive: 91%
2,CCCn1c(=N)c(C(=O)NCc2ccc3c(c2)OCO3)cc2c(=O)n3cccc(C)c3nc21,inconclusive: 88%
3,CCC(C)NC(=O)CN(C)S(=O)(=O)c1ccc2c(c1)c(=O)n(C)c(=O)n2C (stereo unspecified),inconclusive: 104%
4,CC[C@@H](C)[C@H](NC(=O)C1CCN(C(=O)[C@@H](NS(=O)(=O)c2ccc(C)cc2)C(C)C)CC1)C(=O)O,inconclusive: 104%
5,CCN(CC(=O)Nc1ccccc1OC)CC(=O)Nc1sccc1C#N,inactive: 100%
6,C/C(=N\NC(=O)OC(C)(C)C)c1ccc(-n2ccnc2)cc1,inconclusive: 102%
7,COC(=O)c1cccc(C(=O)N2CCCC(C(=O)c3cc(F)ccc3F)C2)c1 (stereo unspecified),inactive: 102%
8,Cc1ccc(-n2cccc2/C=C2\C(=N)N3N=C(c4ccco4)SC3=NC2=O)cc1,inconclusive: 87%
9,Cc1cc2cc(C)c3nnc(SCC(=O)NCc4ccc5c(c4)OCO5)n3c2cc1C,inconclusive: 92%
10,O=C(CSc1nnc(-c2ccncc2)n1Cc1ccco1)c1ccc(Cl)cc1,inconclusive: 107%
11,CC(C)CCOc1cccc(OCC(=O)O)c1,inconclusive: 294%
12,CN1C(=O)c2ccccc2C(C(=O)NCCCN2CCCC2)C1c1c[nH]c2ccccc12 (stereo unspecified),inconclusive: 112%
13,CC1CC(NC(=O)C2(C)CC2(Cl)Cl)CC(C)(C)C1 (stereo unspecified),inconclusive: 109%
14,CS(=O)(=O)c1ccc(C(=O)OCc2nnc(-c3ccc(Cl)cc3)o2)cc1[N+](=O)[O-],inactive: 93%
15,COc1ccc(CCNC(=O)CCCCCNc2nc(=S)[nH]c3ccccc23)cc1OC,inactive: 94%
16,O=c1oc2ccc3ccccc3c2cc1-c1nnc(-c2cccs2)o1,inconclusive: 94%
17,O=C(N/N=C/c1ccc([N+](=O)[O-])o1)c1cn(-c2ccccc2)nc1-c1ccccc1,inactive: 82%
18,c1ccc2oc(-c3ccc(Nc4nc(N5CCCCC5)nc(N5CCOCC5)n4)cc3)nc2c1,inconclusive: 93%
19,COc1ccc(/C(C)=N/NC(=O)c2sccc2-n2cccc2)cc1,inactive: 100%
20,O=C(CN1C(=O)C2C3C=CC(C3)C2C1=O)NC1CCCc2ccccc21 (stereo unspecified),inconclusive: 106%
21,COc1ccc(C2=NOC(C(=O)NCc3ccco3)C2)cc1OC (stereo unspecified),inconclusive: 95%
22,O=[N+]([O-])c1cc2oc3c(c2c(C=NCc2ccccc2)c1O)CCCC3,active: 73%
